Results as given in the supplement of paper PMC12217912.
The list shows a part of the results. The full chains were built here from the parent and the listed change. Inactive controls read about 0.05.

B1: TEV protease; numbered along this chain (parent)
chain: MGESLFKGPRDYNPISSSICHLTNESDGHTTSLYGIGFGPFIITNKHLFRRNNGTLVVQSLHGVFKVKDTTTLQQHLVDGRDMIIIRMPKDFPPFPQKLKFREPQREERICLVTTNFQTKSMSSMVSDTSCTFPSGDGIFWKHWIQTKDGQCGSPLVSTRDGFIVGIHSASNFTNTNNYFTSVPKNFMELLTNQEAQQWVSGWRLNADSVLWGGHKVFMVKPEEPFQPVKEATQL

Variants of: B1
Experiment: raw area under fraction-flipped curve 0-4 h after induction (AUC4h, not background-subtracted), DNA-recorder readout of cleavage of the substrate (dimensionless); higher = more cleavage of the substrate by the protease variant
Conditions: temperature: 34 °C; time window: 0-4 h after rhamnose induction
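Further: Bxb1 expression induced with 0.2% (w/v) L-rhamnose at OD600 near 0.5, cultures sampled hourly, flipped fraction per protease–substrate barcode pair counted by paired-end Illumina sequencing.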

| Variant | area with substrate ENLYDQS | area with substrate ENLYEQS | area with substrate ENLYGQS | area with substrate ENLYHQS | area with substrate ENLYIQS | area with substrate ENLYKQS | area with substrate ENLYNQS | area with substrate ENLYPQS | area with substrate ENLYQQS | area with substrate ENLYRQS | area with substrate ENLYSQS | area with substrate ENLYTQS | area with substrate ENLYVQS | area with substrate ENLYWQS | area with substrate ENLYYQS | area with substrate ENLYLQS | area with substrate ENLYMQS |
| --- | --- | --- | --- | --- | --- | --- | --- | --- | --- | --- | --- | --- | --- | --- | --- | --- | --- |
| V126S | 0.0719 | 0.0629 | 0.0679 | 0.067 | 0.146 | 0.0666 | 0.094 | 0.0632 | 0.0592 | 0.0635 | 0.0765 | 0.0862 | 0.127 | 0.088 | 0.0694 |  |  |
| C20Y | 0.0572 | 0.0527 | 0.0556 | 0.0583 |  | 0.049 | 0.0479 | 0.055 | 0.0466 |  | 0.0427 |  | 0.0494 |  | 0.0528 | 0.0413 | 0.0502 |
| E223G | 0.0461 | 0.0597 |  |  |  |  |  |  |  |  |  |  |  |  | 0.0845 |  |  |
| V57A | 0.0628 | 0.0609 | 0.0521 | 0.0513 | 0.142 | 0.0542 |  | 0.0588 | 0.0747 | 0.0676 |  | 0.0729 | 0.121 | 0.088 | 0.0837 |  | 0.0953 |
| G202E | 0.061 | 0.0703 |  | 0.0668 |  | 0.0608 |  | 0.06 | 0.0568 | 0.0547 |  |  | 0.0605 | 0.0655 | 0.0941 | 0.0651 | 0.0473 |
| I167H | 0.0558 | 0.0527 |  |  | 0.07 | 0.0559 | 0.0521 | 0.0378 |  | 0.0409 |  |  | 0.0484 |  | 0.0473 | 0.0729 | 0.0472 |
| D82E | 0.0583 | 0.0642 | 0.059 | 0.0608 |  |  | 0.048 | 0.058 | 0.046 | 0.0892 | 0.0621 | 0.0573 |  |  | 0.0501 |  | 0.065 |
| F218A | 0.0389 | 0.0749 | 0.0546 | 0.0546 | 0.0758 | 0.0435 | 0.0581 | 0.0605 |  | 0.0666 |  | 0.0681 | 0.0936 | 0.0837 | 0.0584 |  | 0.0695 |
| F218K | 0.0699 |  | 0.0724 | 0.0514 | 0.0578 |  | 0.0596 | 0.059 |  |  | 0.0713 | 0.07 | 0.082 |  |  |  | 0.0632 |
| F218D | 0.0679 |  | 0.0492 |  | 0.0661 | 0.0763 | 0.0429 | 0.0526 |  |  |  | 0.0758 | 0.0758 |  | 0.0663 |  | 0.053 |
| V220T | 0.0485 | 0.0637 |  | 0.0515 | 0.145 |  |  | 0.0629 | 0.072 | 0.0524 |  |  |  | 0.0419 |  |  |  |
| T147D | 0.0643 | 0.0693 |  |  |  | 0.0575 |  | 0.0054 |  |  |  |  |  | 0.0635 |  | 0.0624 |  |
| S171D | 0.0602 | 0.0665 | 0.06 | 0.0645 |  | 0.0655 | 0.0511 | 0.0603 | 0.0372 |  | 0.0609 |  | 0.0696 | 0.0574 | 0.0624 |  |  |
| K68M | 0.0618 |  | 0.0659 | 0.0534 |  | 0.0524 |  | 0.0538 |  | 0.0488 |  |  | 0.116 |  | 0.0671 | 0.0776 |  |
| K68N | 0.0675 |  | 0.0599 | 0.066 | 0.12 |  | 0.0803 | 0.0417 | 0.0657 | 0.0641 | 0.0714 | 0.0981 | 0.14 | 0.0643 |  |  | 0.0935 |
| R51G | 0.0654 | 0.0668 |  |  |  |  |  | 0.0749 | 0.0726 | 0.0733 | 0.076 | 0.088 | 0.114 | 0.0958 |  |  | 0.096 |
